Test results: the supplement of paper PMC3334620
In all, about 33,000 sequences were measured (“E-score (-0.5 to 0.5)”: median about -0.032, highest 2% from about 0.36 on). The list shows a part of the results.

target: T1, Sko1 (UniProt Q02100); assay: PBM E-score (8-mer binding enrichment) (E-score (-0.5 to 0.5)); higher = stronger / more preferred TF binding; most listed sequences are background and not binding sites; details: protein concentration: 200 nM; construct: GST-full length
T1 sequence: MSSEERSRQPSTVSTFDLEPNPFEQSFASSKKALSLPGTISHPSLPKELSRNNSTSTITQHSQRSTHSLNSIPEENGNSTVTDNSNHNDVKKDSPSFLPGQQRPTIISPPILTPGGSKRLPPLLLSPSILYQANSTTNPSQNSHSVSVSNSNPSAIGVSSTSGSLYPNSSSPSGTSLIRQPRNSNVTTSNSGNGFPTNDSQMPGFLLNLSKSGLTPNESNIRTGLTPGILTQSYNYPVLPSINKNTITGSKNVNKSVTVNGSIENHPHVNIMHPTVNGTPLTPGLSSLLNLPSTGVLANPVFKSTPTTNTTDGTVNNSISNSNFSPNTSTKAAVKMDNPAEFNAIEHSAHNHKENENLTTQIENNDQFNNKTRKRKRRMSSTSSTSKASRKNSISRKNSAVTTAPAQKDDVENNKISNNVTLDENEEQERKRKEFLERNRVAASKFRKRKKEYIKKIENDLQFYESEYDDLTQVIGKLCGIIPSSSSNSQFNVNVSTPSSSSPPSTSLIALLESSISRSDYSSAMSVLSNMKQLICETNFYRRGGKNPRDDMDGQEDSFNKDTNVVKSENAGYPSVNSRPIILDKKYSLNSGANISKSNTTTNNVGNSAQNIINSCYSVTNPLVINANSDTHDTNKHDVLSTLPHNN
Procedure: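 Universal 'all 10-mer' protein binding microarrays (Agilent AMADID 015681) probed with GST-tagged S. cerevisiae TFs (full-length or DBD) made by in vitro transcription/translation (PURExpress), about 100-200 nM. Bound TF was detected with fluorescent anti-GST. Each ungapped 8-mer (which stands for itself and its reverse complement) is scored by the PBM enrichment score (E-score), a modified Wilcoxon-Mann-Whitney statistic from -0.5 to +0.5, computed with the Universal PBM Analysis Suite. Scale: above 0.35 generally sequence-specific binding.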

Sequence	PBM E-score
AATTCTGT	0.075
GCCGAACC	-0.251
GGTGGGAC	-0.199
AACAATTA	0.263
ATTACACC	0.105
CTACGCAC	0.315
CGTTACAC	0.126
GCGTTTCA	-0.0433
ACTGAAAG	0.0387
GGTGTCCA	-0.177
CCCTTGGA	-0.1
CCAGCGTA	-0.014
CAAAGTCA	-0.0486
AGATGCAC	-0.0198
CTATTCGA	0.0674
CTTGCCGC	-0.0196
GAAGCTTC	-0.375
GGTTAGCA	-0.177
GAATTCAA	0.0513
GGCATCCA	-0.201
CCGAGGTA	-0.161
AAAAATGC	0.00691
AAGCATTG	-0.123
GAACGGAC	-0.228
GTGGAGCA	-0.21

Sequence	PBM E-score
AGCCTTAA	-0.136
AGGAGATC	-0.214
AACAAGTG	0.064
AAGGGTAC	-0.083
AATCTTCA	0.175
AGGAAGCC	-0.147
CGACCCAC	-0.147
CAGCACTA	-0.15
AGTATTCC	0.0387
GCTCCGAA	-0.0558
ACACTGAT	-0.132
GTGTTTGA	0.258
AAGTATTG	0.15
CCCAGTTC	-0.144
GGAGCCGA	-0.149
TGTCCACA	-0.0162
TATTTGCA	0.258
ACCCTGAA	-0.0751
AGCAACGA	0.0335
GTTCGCTA	0.0269
ATTCATGC	-0.0766
GGGGCACA	-0.254
GGCAAGAA	-0.00879
GAGCAGGA	-0.112
GATACGCA	0.351

Sequence	PBM E-score
GTTCTTTA	0.175
TAAGAACA	0.212
ACACAGTG	0.00218
GATCAACC	-0.0251
ATTGAGGA	-0.038
AAGGGTGG	-0.237
ATATATAG	0.192
AGCCACCA	-0.177
ACGTATGC	0.458
TCTAATAA	0.274
CTGGGATA	-0.212
AATGATGA	0.328
TCGTTTAA	0.183
AGAATTTA	0.112
TCGCGACA	-0.0189
AAGCATGA	0.0422
CCAGGGGA	-0.391
CTTACCGA	0.0604
GGCGATAC	-0.0442
TCGCAAAA	0.0979
TCGCTCAA	-0.0492
ATATCATC	0.238
CTAAACCA	0.0153
AATGTGAA	0.214
ACGGATTA	0.0137

Sequence	PBM E-score
ACTGCGCT	-0.00019
TCGTACCA	0.111
CCAGTCTC	-0.22
CCACCACG	0.23
GCCAAGCC	-0.284
AACCTCAC	-0.0124
ACTCTGGA	0.0694
CCTAGAAG	-0.17
CTGAATTC	-0.106
ATGTTCCA	-0.0276
AGGCTTCA	-0.302
ACTGGAGG	-0.358
AGATAGTG	0.0573
GCTACCAA	-0.167
GCCGCGCC	-0.269
AAAGCCTG	-0.116
GCGTTGCA	0.0662
GCCTCGAA	-0.149
TAGGCCTA	0.108
ATAGGGAC	-0.231
AGACTGTA	-0.0593
ATCACGTC	0.42
AATGAAAA	0.16
ACTGTCGG	-0.185
AATGGTGG	-0.13

Sequence	PBM E-score
TCCTGAAA	0.0812
CCGTCCAC	-0.113
AGGTTATC	-0.223
CTACGATA	0.183
GTGGCGCA	0.0382
ATAAAAGA	0.116
GCTCTAAA	0.0432
CCTATTCC	-0.0902
GCGTCGGA	0.0489
AGATCGGG	-0.268
AGGTTCGA	0.081
AATGATTG	0.118
ACAAAGCC	-0.0169
ATGTCAAC	0.166
AGGATCCG	-0.257
TAAACACA	0.133
TCCAGCAA	-0.0124
AGTCGGAA	-0.0901
GGGTGACA	-0.0564
CGGTTTAG	-0.298
AGCAGAAT	0.102
GACGGACC	-0.0678
AGGGAACT	-0.272
GCTATGGA	-0.0316
ATGAATAA	0.0192

Sequence	PBM E-score
CGCGCATC	0.0476
CTCCTTCC	-0.0999
ACGCAGAT	0.155
CAAGGGCG	-0.108
ATCTGGGA	-0.147
CAAGATTC	0.0386
ACGCTTGG	0.0624
CTGCTTGA	-0.193
GAATCAGA	0.0109
AGATAGAC	-0.00149
ATATATGC	0.142
AGCTAACT	-0.0352
ACAGTATC	0.179
AGTCAAGC	-0.191
ACGCGCCA	0.0509
CAAAGGAC	-0.185
ATTTTTAA	0.305
CGATGGTA	-0.163
GCAACACC	0.00519
CCACCCAA	-0.263
GACGATGC	0.169
AATAACGG	0.138
TCGCGAGA	0.0253
AGCTACGG	-0.193
GCCGTTAC	0.0343

Sequence	PBM E-score
CTCCTGTC	-0.2
ATAAGGAG	-0.159
GGTGGCAC	-0.228
CTCCATCA	-0.113
AATGGGCA	-0.106
CGAAACCG	-0.0688
GCCACAGA	-0.259
CAACTATC	-0.0298
CTGTGCAC	-0.139
CAACAAGG	0.182
AAAAATGA	0.209
CGCGCAAA	0.187
AAGGGCCA	-0.192
TCCACTAA	-0.18
ACTGCGTA	0.343
ATAACATA	0.261
CGCCCGAG	-0.261
CTGGGTAA	-0.062
ACTCCTAA	-0.0213
AATGGCCA	-0.221
AGCTTTCA	-0.0116
ACCCCGAT	-0.285
CGACGGTC	-0.224
GGTTGGAC	-0.245
AAGTGCTA	-0.0182

Sequence	PBM E-score
AGCGTCGA	0.122
CAAACAGC	0.0209
CACCTTGC	-0.0664
TGGCTACA	0.0555
CAAACAAA	0.0906
AAGGGAGA	-0.281
GATCATGA	0.25
CTCATCAC	0.0999
GCTGCATA	0.106
TCCGGTCA	-0.155
AATGTGCT	0.144
AGGGCCTA	-0.258
ACGCTTTC	-0.0714
CTGGCATC	-0.216
AATCCGCA	-0.0579
CTATGGTC	-0.274
CTGGCGTA	0.138
AAGGTATC	-0.175
ATACACGC	0.221
CTGCCCCA	-0.194
ATCGGGTG	-0.0893
GCTATGAA	0.063
GAAACTAA	0.102
ATTGTACG	0.335
GTCCAGTA	-0.0738

Sequence	PBM E-score
AACACAAT	0.213
CACTACTG	0.009
GAAGGCCA	-0.252
AATAACAA	0.194
CCAAGCCA	-0.167
AAGAAAAG	-0.011
TCGTACAA	0.206
GGGGCGTA	-0.127
CCGGCTGA	-0.096
CACTACCG	-0.205
ACTTTGTC	0.0337
CCAGCTCA	-0.195
CCCAGATA	-0.285
ATTGACCG	0.0898
ATCTTATA	0.099
ACCATTCA	0.12
CAACGCGG	-0.0308
ACAGCCGC	-0.297
ATAGAGTA	0.121
